Laboratory results taken from PubChem BioAssay AID1745853 (National Center for Advancing Translational Sciences (NCATS), 2022).
The list shows a part of the results. Shown are side measurements of this screen, not its main read-out; they come without a call.

Experiments:
Test in all cases: Primary Screen for Target Class Profiling of Small Molecule Inhibitors of Methyltransferases
[1] = target: Glycine N-methyltransferase (Homo sapiens) (UniProt Q14749); conditions: purified enzyme, MTase-Glo SAH luminescence; measured here: GNMT inhibition; at 40 µM; stronger effect = lower value
In short: (§1)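 Each enzyme was reacted with SAM and its substrate, with compounds tested once at 40 uM; SAH formed was read by MTase-Glo luminescence.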

[2] = target: Guanidinoacetate N-methyltransferase (Homo sapiens) (UniProt Q14353); conditions: purified enzyme, MTase-Glo SAH luminescence; measured here: GAMT inhibition; at 40 µM; stronger effect = lower value
In short: as §1

[3] = target: Histamine N-methyltransferase (Homo sapiens) (UniProt P50135); conditions: purified enzyme, MTase-Glo SAH luminescence; measured here: HNMT inhibition; at 40 µM; stronger effect = lower value
In short: as §1

[4] = target: Nicotinamide N-methyltransferase (Homo sapiens) (UniProt P40261); conditions: purified enzyme, MTase-Glo SAH luminescence; measured here: NNMT inhibition; at 40 µM; stronger effect = lower value
In short: as §1

[5] = target: Phenylethanolamine N-methyltransferase (Homo sapiens) (UniProt P11086); conditions: purified enzyme, MTase-Glo SAH luminescence; measured here: PNMT inhibition; at 40 µM; stronger effect = lower value
In short: as §1
% is set by controls: 0 for no effect and ±100 for the full control effect.

SMILES | activity change, negative = inhibition [1] [%] | activity change, negative = inhibition [2] [%] | activity change, negative = inhibition [3] [%] | activity change, negative = inhibition [4] [%] | activity change, negative = inhibition [5] [%]
COc1cc(/C=C/C(=O)O[C@H]2[C@H](OC(=O)/C=C/c3cc(OC)c(O)c(OC)c3)O[C@H](CO[C@@H]3O[C@H](CO)[C@@H](O)[C@H](O)[C@H]3O)[C@@H](O)[C@@H]2O)ccc1O | -4.31 | -4.69 | 2.45 | -16.1 | -11.1
Cn1c(=O)n(-c2ccc(C(C)(C)C#N)cc2)c2c3cc(-c4cnc5ccccc5c4)ccc3ncc21 | -7.01 | -17.7 | 5.07 | -21.7 | -7.34
COC(=O)COc1cc2oc(=O)cc(-c3ccccc3)c2cc1Cl | 0.619 | 5.03 | 4.72 | -0.734 | 0.696
O=S(=O)(c1ccccc1)N1CCCC(CN2CCCC2)CC1 (stereo not drawn) | -8.62 | -6.86 | -30.7 | -11.6 | -11.9
CC1(C(=O)NC2CCCCCC2)Cn2nc(-c3ccco3)cc2C(=O)N1Cc1cccc(F)c1 (stereo not drawn) | -7.16 | -2.33 | 0.486 | -15.4 | -1.58
COc1ccc2c(c1)c(CN1CCOCCNC(=O)CC1)cn2C | -3.6 | -3.04 | 0.473 | -10.3 | 52.3
NC(=O)NCC(=O)N1CCC2(CCCN(CCCc3ccccc3)C2)C1 (stereo not drawn) | -5.02 | -4.69 | -2.26 | -11.5 | 5.92
COc1cccc(CN2C(=O)c3ccc(-c4ccco4)n3CC2(C)C(=O)NC2CCCCC2)c1 (stereo not drawn) | -4.92 | 2.38 | -1.11 | -5.8 | -6.31
CC(=O)O[C@@]1(C)[C@@H]2CC(=C(C)C)C(=O)C[C@@]2(C)CC[C@H]1OC(=O)C1(C)OC1C (stereo partly drawn) | -0.979 | -2.71 | 9.46 | -17.5 | -11.4
COc1cc(/C=C/C(=O)O[C@@H]2C[C@](O)(C(=O)O)C[C@@H](O)[C@H]2O)ccc1O | -0.421 | 1.67 | 4.25 | -7.34 | -3.56
CC(=O)N1CCN(c2ccnc(-c3nnc(C)n3C3CCCCC3)c2)CC1 | -1.34 | -3.05 | -0.52 | -11.1 | -10.5
CCOc1ccccc1CN1C(=O)c2c(C(=O)OC)ncn2CC1(C)C(=O)NC1CCCCCC1 (stereo not drawn) | 4.41 | 0 | 3.51 | 3.44 | 2.86
CCOCCCNC(=O)C1c2c(n(C)c3ccccc23)SCC(=O)N1c1ccc(Cl)cc1C (stereo not drawn) | 14.2 | 2.72 | 8.31 | 7.47 | 9.93
CCOC(=O)c1cc2n(n1)CC(C)(C(=O)NC1CCCC1)N(Cc1cccc(C)c1)C2=O (stereo not drawn) | 5.34 | 0.093 | 3.75 | 7.29 | 3.4
O=C(NC1CC(c2nnc(CO)n2C2CC2)C1)c1cccn2cnnc12 (stereo not drawn) | -5.43 | -13.5 | -3.83 | -11.9 | -6.63
COc1ccc(-c2c(C)nn3c4c(cnc23)C(=O)CC(c2ccc(C)cc2)C4)cc1 (stereo not drawn) | – | 9.99 | – | 1.87 | 8.74
Cc1ccc(CN2CCCCCNC(=O)[C@@H]3CCC[C@@H]32)s1 | -4.35 | -1.44 | 0.552 | -16.4 | -4.25
COc1ccc(CN2C(=O)c3cc4occc4n3CC2(C)C(=O)NC2CCCCC2)cc1 (stereo not drawn) | -5.34 | 4.01 | 0.922 | 2.61 | -1.42
N#Cc1ccc(C(=O)N2CCN3CCS(=O)(=O)N(C4CC4)C(=O)C3C2)cc1 (stereo not drawn) | -5.97 | -8.92 | -2.91 | -15.3 | 7.43
COc1cccc(C2c3cccn3-c3sc4c(c3CN2C(=O)NCc2ccc(F)cc2)CCCC4)c1 (stereo not drawn) | -1.36 | 1.47 | 7.51 | 2.08 | 5.98
COC(=O)NC1CCN(c2ccc3nnc(-c4ccccc4)n3n2)C1 (stereo not drawn) | -6.19 | -1.78 | -1.28 | -8.21 | -0.734
CC(C)(Oc1nn(CC2CCOCC2)c2ccccc12)C(=O)NCc1ccncc1 | -4.74 | -2.61 | -1.19 | -8.32 | 4.16
C=C1CC[C@@H](O)[C@]2(C)C[C@H]3OC(=O)C(=C)[C@H]3CC12 (stereo partly drawn) | -1.27 | -1.9 | 5.8 | -14.5 | 3.51
CCCC1c2cccn2CCN1C(=O)NCc1ccc(C)cc1 (stereo not drawn) | 3.96 | 3.09 | 0.481 | 2.65 | 5.09
c1cncc(-c2cc(-c3cccc(N4CCOCC4)c3)cn3cncc23)c1 | -26.6 | -9.34 | -17.2 | -19.4 | -28.1
CSc1ccc(CNC(=O)CCn2ccc3cc(S(=O)(=O)N4CCCC4)ccc32)cc1 | 2.23 | 0.678 | 4.57 | -1.29 | 1.93
CC1CCCCC1NC(=O)C1(C)Cn2c(ccc2-c2ccco2)C(=O)N1Cc1ccccn1 (stereo not drawn) | 0.141 | 0.326 | 10.6 | 0.609 | 1.4
COc1ccc(Cn2c(=O)c3ccccc3n3c(-c4ccc(Cl)cc4)nnc23)cc1 | -1.23 | 0.62 | 2.15 | -1.69 | 0.101
CC(C)(C)c1ccc(-c2cc(C[C@H]3CNCC[C@H]3CC(=O)N3CCOCC3)no2)cc1 | -6.98 | -3.37 | -8.63 | -32.2 | -5.04
C[C@@]1(O)[C@H](O)[C@@H](CO)O[C@H]1n1cnc2c(=O)[nH]c(N)nc21 | 3.1 | -7.52 | 7.92 | -11.7 | 2.19
